# PMC12136788
# The list shows a part of the results.
# B1: ENSG00000107863:be:win_6501|3pUTR|ENSG00000107863|bound_else_gene|NA|bound_elsewhere_windowed (ssRNA)
# RNA: GGGAGUUCUACAGUCCGACGAUCAUACCAGAUUUGAUAUAAUGUUGUAACAUAGGUGUGUAGAUAGUGGAUCCUGGAUGGAACUGGCUUCUUUAUCGAGAAGAAUAUAAUUCUGCAUGAGGACUUAAUGAAUCCAAACCUGUGCAACAGAGGAUUGAGCAUCA
# B2: chr22:21921976:21922077:-|3pUTR|ENSG00000100034|msi1|total|mutant (ssRNA)
# RNA: GGGAGUUCUACAGUCCGACGAUCGACUGCAGUGGGCUCGGACCGGCCCAUUGAGGUUUUCCGAAAAGCAGGAUUUGUUUUGUCCGGGAGGCAUGAUUUUGGUGAGAUCUUUCUGGAAGAGUUUUCCGCCUCUUUGUGAUGCUGCAACAGAGGAUUGAGCAUCA
# B3: ENSG00000198589:be:win_6701|CDS|ENSG00000198589|bound_else_gene|NA|bound_elsewhere_windowed (ssRNA)
# RNA: GGGAGUUCUACAGUCCGACGAUCUGUUUCCUUGGGUCAUCACUAAUUAUGAAUCAGAAGAACUGGAUCUUACCUUGCCCACCAACUUCAGAGAUUUGUCCAAGCCAAUAGGAGCUCUGAACCCAAAAAGAGCAGCAUUCUUCGCAACAGAGGAUUGAGCAUCA
# B4: ENSG00000198589:be:win_1351|CDS|ENSG00000198589|bound_else_gene|NA|bound_elsewhere_windowed (ssRNA)
# RNA: GGGAGUUCUACAGUCCGACGAUCAUGCUCCAGGAUGUAAAGGCAGUUUUAACACAUUCCAUCCAAAGUGCAAUGCAUUCAAUUGGAGGAGUACAAGUACUAUUUCCACUUUUUGCACAGUUGGAUUACAGGCAAUAUUUGUCUCAACAGAGGAUUGAGCAUCA
# B5: chr2:45599705:45599806:-|CDS|ENSG00000068784|msi1|FALSE|unique (ssRNA)
# RNA: GGGAGUUCUACAGUCCGACGAUCCUCAUAUGUUCUCUUUGUGGUUUGAUAGAAUAGCUCUGUGGCUAUUGCUGAUACUGCUUUAGAAGACAGAAAAAAUAAAUUGGAUACUGUACAGACUCUGAAAACAGCCAAGACAAAACACAACAGAGGAUUGAGCAUCA
# B6: chr16:68014110:68014412:-|CDS|ENSG00000263201|control|control|control (ssRNA)
# RNA: GGGAGUUCUACAGUCCGACGAUCAGGCGUGCUCCCAAGAGACGUCAAGCUACGAUAGAGUCAGAUAAAGACCUGGGUUGCUCUAGCCCCAAAAUUCGGCGCUUGGAGCAUCGUGGCAGGAGACUGACCCCACAGAAGCUUGCUCAACAGAGGAUUGAGCAUCA
# B7: chr9:114598126:114598323:+|3pUTR|ENSG00000136888|msi1|FALSE|unique (ssRNA)
# RNA: GGGAGUUCUACAGUCCGACGAUCUCUUUGUAACCUGUGUGAAGCAGCAGCCAGCCUUAAAGUAGUCCAUUCUUGCUAAUGGUUAGAACAGUGAAUACUAGUGGAAUUGUUUGGGCUGCUUUUAGUUUCUCUUAAUCAAAAUUACAACAGAGGAUUGAGCAUCA
# B8: chr17:58089516:58089557:+|3pUTR|ENSG00000264364|msi1_unk|total|mutant (ssRNA)
# RNA: GGGAGUUCUACAGUCCGACGAUCGAAGGCUGCUUUAUGUUUAUUUUUCAAGACUUUAAAAAUAUUUUUUGGUUGUAUUGCACCCGGAAAUCUCUCCCACCUCUCCCUUUUCUCUUUCUUUCCCUAUACAAAAUAAAAGGCCCACAACAGAGGAUUGAGCAUCA
# B9: chr8:30843048:30843149:-|CDS|ENSG00000133863|unk|total|mutant (ssRNA)
# RNA: GGGAGUUCUACAGUCCGACGAUCGGAUACUAUAAUUGCUUCCAGAAAGUCAGAUCAUCCAAUAAACGAAGCAACAAUCCGCACCGAAAAUUCUAAAUUUAACAGUAAUUUGCUUGCACACCCAGAUAUUUGUUGUAUCCGUGACAACAGAGGAUUGAGCAUCA
# B10: chr17:7656804:7656905:+|3pUTR|ENSG00000129244|unk|FALSE|unique (ssRNA)
# RNA: GGGAGUUCUACAGUCCGACGAUCGCAUGUGCCACCAUGCCCGGCUAAUUUCUUUCUUUCUUUUUUUUUUUUUUUGCAUUUUUUAGUAGAGAUGGGGGUUUCUCCUUGUUGGUCAGGCUGGUCUCGAACUCCCGACCUCAGGUGCAACAGAGGAUUGAGCAUCA
# B11: ENSG00000162599:stop:overlap|stop_codon|ENSG00000162599|stop_codon|NA|stop_codon (ssRNA)
# RNA: GGGAGUUCUACAGUCCGACGAUCUCACACAGCAUCACCGACCUGUCAUUACAGGACCCAGAGCUUUUCUUUGGAGCCUCCCAUAGAAGAGAGACUGGGAUUUAAAGGCUGAUGCCAGAAAGCAAAAGCUAACGUGAAAAGAAUCAACAGAGGAUUGAGCAUCA
# B12: ENSG00000076706:stop:overlap|stop_codon|ENSG00000076706|stop_codon|NA|stop_codon (ssRNA)
# RNA: GGGAGUUCUACAGUCCGACGAUCGCAGCGGUGACAAGAGGGCUCCGGGAGACCAGGGAGAGAAAUACAUCGAUCUGAGGCAUUAGCCCCGAAUCACUUCAGCUCCCUUCCCUGCCUGGACCAUUCCCAGCUCCCUGCUCACUCCAACAGAGGAUUGAGCAUCA
# B13: chr6:56056589:56057844:-|three_prime_utr|ENSG00000124749|control|control|control (ssRNA)
# RNA: GGGAGUUCUACAGUCCGACGAUCAAACCUGGAAUCCAAGGGCAACCAGGCCCCCCAGGCAUCUGCGACCCAUCACUAUGUUUUAGUGUAAUUGCCAGAAGAGAUCCGUUCAGAAAAGGACCAAACUAUUAGUGUCUGAUGCCUCAACAGAGGAUUGAGCAUCA
# B14: chrX:52926401:52927765:-|three_prime_utr|ENSG00000268350|control|control|control (ssRNA)
# RNA: GGGAGUUCUACAGUCCGACGAUCUUGUUUGUAAUCAUAAAUUUGUGAGCCUAAGCUACUGCAAAGGAAACUGGCCAGGUUAUUAGCCCAAAUGAAGGCAGUGGGUAACUUGGGUUUAGCCCCAACACCAGCCGCACCUAGGAACAACAGAGGAUUGAGCAUCA
# B15: chr5:10264816:10264917:+|3pUTR|ENSG00000150753|msi1_unk|FALSE|overlapping (ssRNA)
# RNA: GGGAGUUCUACAGUCCGACGAUCAAUGGAUGUCUCGUGAUGCAUCUACAGUUAUUUAUUGUUACAUCCUUUUCCAGACACUGUAGAUGCUAUAAUAAAAAUAGCUGUUUGGUAACCAUAGUUUCACUUGUUCAAAGCUGUGUACAACAGAGGAUUGAGCAUCA
# B16: chr16:55506527:55506628:+|3pUTR|ENSG00000087245|msi1|FALSE|unique (ssRNA)
# RNA: GGGAGUUCUACAGUCCGACGAUCUAUCAGUUUUAAUGCUACUACUAACAAUGAACAGUAACAAUAAUAUCCCCCUCAAUUAAUAGAGUGCUUUCUAUGUGCAAGGCACUUUUCACGUGUCACCUAUUUUAACCUUUCCAACCACAACAGAGGAUUGAGCAUCA
# B17: chr7:101206146:101206247:-|3pUTR|ENSG00000106397|msi1|FALSE|unique (ssRNA)
# RNA: GGGAGUUCUACAGUCCGACGAUCCUUUGUCGACCCCUGACACUCAACCACUCUGCCAAACCUGCCCUGCCAUUGUGCCUUUUUAGGGGGCCUGGCCCCCGUCCUGGGAGUUGGGGGAUGGGUCUCUCUGUCUCCCCACUUCCUCAACAGAGGAUUGAGCAUCA
# B18: chr14:21351797:21351898:-|3pUTR|ENSG00000092201|msi1|FALSE|unique (ssRNA)
# RNA: GGGAGUUCUACAGUCCGACGAUCGAGGAAGGCUCAAAGGAGUCAACAUUUAUAUCUGGAAGGGACAAGUCAUGCCUUGGGCCUAGAAUACCCUGAUGAGAAAAGAGAAGAGGAAGGGAGGCCAUAUCUACAACACAGCCUCUCCAACAGAGGAUUGAGCAUCA
# B19: chr17:57972098:57972209:-|3pUTR|ENSG00000136451|unk|FALSE|bound_elsewhere (ssRNA)
# RNA: GGGAGUUCUACAGUCCGACGAUCCUAGAAUGUGGUUGUCAGAACCCUGAAAGUAUUAGUUCUAAAAAAAAAAAGAUAUAUACUAGAAGUAAUUGUUUUAUCAAUUCAUUGUAUAAUAAACAGGAGUGAGACUUCAUUGUAUGACAACAGAGGAUUGAGCAUCA
# B20: chrX:101163201:101163302:+|3pUTR|ENSG00000102384|unk|FALSE|unique (ssRNA)
# RNA: GGGAGUUCUACAGUCCGACGAUCUCAUCAUCAGGCUCUGCGUUCUACCAAAUUGUAUGUAAAAAGACACAUCUGUUUUGUGGUAGGAUUUUUUCACAUUUUUGGGUACUAUGAGCUGCAUUGAUGGAAGACAGCAGGCAAUAUCAACAGAGGAUUGAGCAUCA
# B21: chr6:13639604:13639705:-|CDS|ENSG00000010017|unk|total|mutant (ssRNA)
# RNA: GGGAGUUCUACAGUCCGACGAUCGACCGUGAAGUACGAUGUUUGGGAGGCCGAAGUCCAAAGUCUCAAGACAGUUAUCCUGUCCGUCCUCGACCUUUCCGCCGUCCAAGUAUGAGCCCCAGCCAUGGAAUGAAUAUCCACAAUCAACAGAGGAUUGAGCAUCA
# B22: chr10:127452233:127452334:+|3pUTR|ENSG00000150760|msi1|total|mutant (ssRNA)
# RNA: GGGAGUUCUACAGUCCGACGAUCGUAUAUAUGAUGGUUCUCCGAACUUGUUUUAAUUUUUGUGGUCCUUCCGUUUAUUAUAACCGGCGUCCACCAAUGAUUAUCCAUAUGUGUUCUUAAUUUUUAACUGCUGGAAGUGUUAAACAACAGAGGAUUGAGCAUCA
# Target: MSI1 full-length (mouse, UniProt Q61474 1-362)
# Assay: nsRBNS (natural sequence RNA bind-n-seq); RBNS binding buffer (assumed for nsRBNS): 25 mM Tris pH 7.5, 150 mM KCl, 3 mM MgCl2, 0.01% Triton X-100, 500 ug/ml BSA, 20 U/ml SUPERase-In, 4 C; UNK is unkempt and MSI1 is Musashi-1; names of the RNAs are library labels; protein concentration not given here; high values mean tight binding
# Chain of UniProt Q61474 (Q61474 whole entry): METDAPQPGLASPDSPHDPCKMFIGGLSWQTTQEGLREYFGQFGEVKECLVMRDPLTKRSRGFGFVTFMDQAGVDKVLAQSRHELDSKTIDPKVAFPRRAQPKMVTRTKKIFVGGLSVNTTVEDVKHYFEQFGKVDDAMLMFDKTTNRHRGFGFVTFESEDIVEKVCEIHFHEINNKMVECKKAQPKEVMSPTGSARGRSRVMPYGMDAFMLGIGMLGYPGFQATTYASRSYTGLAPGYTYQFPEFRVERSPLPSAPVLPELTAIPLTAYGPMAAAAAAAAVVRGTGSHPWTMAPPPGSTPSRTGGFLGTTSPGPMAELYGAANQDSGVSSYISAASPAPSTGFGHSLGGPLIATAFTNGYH
row,Binder,binding signal [enrichment R]
1,B1,0.986
2,B2,0.367
3,B3,0.363
4,B4,0.2
5,B5,0.298
6,B6,0.338
7,B7,2.41
8,B8,2.22
9,B9,1.28
10,B10,2.6
11,B11,8.72
12,B12,0.684
13,B13,1.07
14,B14,0.414
15,B15,5.3
16,B16,3.98
17,B17,0.524
18,B18,0.748
19,B19,29.3
20,B20,0.267
21,B21,0.302
22,B22,0.679
